PMC4336329 (PLoS ONE, 2015)
The campaign covered roughly 310,000 compounds. About 14,000 (4.5%) showed an effect of 50% or more. Effects have a minus sign here. The list shows a part of the results.
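Further: peak tail current of the secondary pulse compared with the same well before compound.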

These compounds were tested against human ether-à-go-go-related gene (hERG) potassium channel (human, UniProt Q12809) (assay: primary screen, population patch clamp on CHO cells stably expressing hERG).
Chain of human ether-à-go-go-related gene (hERG) potassium channel (Q12809 whole entry, looked up): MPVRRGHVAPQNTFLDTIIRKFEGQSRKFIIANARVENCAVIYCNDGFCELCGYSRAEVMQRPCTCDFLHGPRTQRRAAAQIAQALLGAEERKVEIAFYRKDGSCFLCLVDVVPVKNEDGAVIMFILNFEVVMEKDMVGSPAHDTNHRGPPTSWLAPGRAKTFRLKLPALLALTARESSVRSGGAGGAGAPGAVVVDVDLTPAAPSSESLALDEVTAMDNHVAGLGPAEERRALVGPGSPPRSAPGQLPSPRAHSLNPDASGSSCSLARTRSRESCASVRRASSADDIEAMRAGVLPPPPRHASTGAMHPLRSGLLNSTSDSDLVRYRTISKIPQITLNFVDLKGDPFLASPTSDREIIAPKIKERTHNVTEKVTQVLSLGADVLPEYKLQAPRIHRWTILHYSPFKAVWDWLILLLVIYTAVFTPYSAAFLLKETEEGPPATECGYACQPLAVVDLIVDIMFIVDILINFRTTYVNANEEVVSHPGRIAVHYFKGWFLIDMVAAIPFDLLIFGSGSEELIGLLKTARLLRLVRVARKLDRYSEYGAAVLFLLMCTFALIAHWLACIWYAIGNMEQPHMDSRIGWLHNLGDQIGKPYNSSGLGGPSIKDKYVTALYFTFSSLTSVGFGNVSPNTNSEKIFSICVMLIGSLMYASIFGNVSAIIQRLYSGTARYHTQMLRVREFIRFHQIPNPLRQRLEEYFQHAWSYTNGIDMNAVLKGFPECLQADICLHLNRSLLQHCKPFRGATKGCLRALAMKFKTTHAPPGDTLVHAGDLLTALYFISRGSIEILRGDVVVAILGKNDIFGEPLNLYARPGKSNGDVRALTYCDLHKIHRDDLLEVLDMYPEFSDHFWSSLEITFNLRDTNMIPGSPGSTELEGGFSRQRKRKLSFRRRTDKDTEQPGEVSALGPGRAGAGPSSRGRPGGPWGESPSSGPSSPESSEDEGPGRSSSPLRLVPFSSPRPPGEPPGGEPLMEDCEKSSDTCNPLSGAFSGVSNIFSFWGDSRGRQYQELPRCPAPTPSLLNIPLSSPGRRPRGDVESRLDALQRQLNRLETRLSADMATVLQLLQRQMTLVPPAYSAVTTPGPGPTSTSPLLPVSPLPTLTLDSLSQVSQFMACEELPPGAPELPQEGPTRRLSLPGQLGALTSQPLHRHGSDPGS
`COC(=O)CSCC(=O)Nc1nnc(-c2ccccc2C)s1` was tested, and the “hERG current change (%, negative = inhibition) at 10uM” value was 3.14%. For `CC(C)C[C@H]1CN=C(Nc2ccccc2)N1CCC(C)c1ccccc1` (stereo partly shown), the “hERG current change (%, negative = inhibition) at 10uM” value was -67%. `COc1ccc(/C=C/C(=O)OCCNC(=O)c2ccncc2)cc1OC` was tested, and the “hERG current change (%, negative = inhibition) at 10uM” value was 30.8%. For `Cc1nc2ccc(NS(=O)(=O)c3c(F)cc(F)cc3Br)cc2s1`, the “hERG current change (%, negative = inhibition) at 10uM” value was -19%. With `COc1ccc(-c2cccc(C(=O)Nc3ccc(OC)c(OC)c3)c2)cc1` the “hERG current change (%, negative = inhibition) at 10uM” value was 4.27%. For `CCC(Sc1nc(N)cc(N)n1)C(=O)O` (stereo not shown), the “hERG current change (%, negative = inhibition) at 10uM” value was 6.74%. For `CC(=O)c1cccc(NC(=O)Nc2ccc3c(c2)CCC3)c1`, the “hERG current change (%, negative = inhibition) at 10uM” value was 10.4%. With `COc1ccc(/C=C/C(=O)OCC(=O)Nc2cc3oc4ccccc4c3cc2OC)cc1` the “hERG current change (%, negative = inhibition) at 10uM” value was 20.3%. In the case of `COC(=O)CCC(=O)OC1(C)C(=O)C2=CN(Cc3ccc4c(c3)OCO4)C(c3ccc(OC)cc3)=CC2=C(Br)C1=O` (stereo not shown), the “hERG current change (%, negative = inhibition) at 10uM” value is reported as 5.94%. With `O=C(O)C1C(C(=O)O)C2(Cl)C(Cl)=C(Cl)C1(Cl)C2(Cl)Cl` (stereo not shown) the “hERG current change (%, negative = inhibition) at 10uM” value was 11%. `CC(C)CN(C(=O)CN1CCN(c2ccccc2F)CC1)c1c(N)n(CC(C)C)c(=O)[nH]c1=O` was tested, and the “hERG current change (%, negative = inhibition) at 10uM” value was 7.43%. For `COc1ccc(S(=O)(=O)NC(C)C(=O)Nc2ccccc2C(F)(F)F)cc1` (stereo not shown), the “hERG current change (%, negative = inhibition) at 10uM” value was -10.1%. With `CCN(CC(=O)NCc1ccc(F)cc1)C(=O)COc1ccc2ccccc2c1` the “hERG current change (%, negative = inhibition) at 10uM” value was -70.5%. In the case of `COc1ccc2[nH]c(C(=O)Nc3ccc(C)c(F)c3)cc2c1`, the “hERG current change (%, negative = inhibition) at 10uM” value is reported as 12.5%. `O=C(Cc1ccccc1)c1ccccc1C(=O)N1CCCCC1` was tested, and the “hERG current change (%, negative = inhibition) at 10uM” value was 16.2%. In the case of `COC(=O)c1cccc(NC(=O)CSc2nncn2-c2ccccn2)c1`, the “hERG current change (%, negative = inhibition) at 10uM” value is reported as -3.56%. For `ClC(Cl)=C(c1ccc(Cl)cc1)c1ccc(Cl)cc1`, the “hERG current change (%, negative = inhibition) at 10uM” value was -15.5%. With `COc1ccc(Cl)cc1NC(=S)Nc1ccc(Cl)cn1` the “hERG current change (%, negative = inhibition) at 10uM” value was 10.1%. In the case of `O=C(O)CC(c1cccc(Cl)c1)n1cccc1` (stereo not shown), the “hERG current change (%, negative = inhibition) at 10uM” value is reported as 7.07%. In the case of `CCOC(=O)N1CCN(C(=O)NC2CCCCC2)CC1`, the “hERG current change (%, negative = inhibition) at 10uM” value is reported as 16.2%. With `C[C@]12CCC3C(CCC4=C/C(=N/OCC(=O)NC(CCC(N)=O)C(=O)O)CC[C@@]43C)C1CCC2O` (stereo partly shown) the “hERG current change (%, negative = inhibition) at 10uM” value was 2.01%. With `COc1cc(CNCc2ccncc2)cc(Br)c1OCc1ccccc1F.Cl` the “hERG current change (%, negative = inhibition) at 10uM” value was -43.3%. For `COCCNC(=S)Nc1cccc2cnccc12`, the “hERG current change (%, negative = inhibition) at 10uM” value was -8.54%. For `Cc1ccc(-n2c(O)c(C=NCc3ccco3)c(=O)[nH]c2=S)cc1C`, the “hERG current change (%, negative = inhibition) at 10uM” value was 8.53%. `C=CCN1C(=O)C(Cc2ccc(OC)cc2)S/C1=N/N=C/c1ccco1` (stereo not shown) was tested, and the “hERG current change (%, negative = inhibition) at 10uM” value was -1.49%.
